Reference: the GPR68 mutational scans of Howard et al. (2025)

B1: GPR68, Q15743 (parent)
chain: MGNITADNSSMSCTIDHTIHQTLAPVVYVTVLVVGFPANCLSLYFGYLQIKARNELGVYLCNLTVADLFYICSLPFWLQYVLQHDNWSHGDLSCQVCGILLYENIYISVGFLCCISVDRYLAVAHPFRFHQFRTLKAAVGVSVVIWAKELLTSIYFLMHEEVIEDENQHRVCFEHYPIQAWQRAINYYRFLVGFLFPICLLLASYQGILRAVRRSHGTQKSRKDQIQRLVLSTVVIFLACFLPYHVLLLVRSVWEASCDFAKGVFNAYHFSLLLTSFNCVADPVLYCFVSETTHRDLARLRGACLAFLTCSRTGRAREAYPLGAPEASGKSGAQGEEPELLTKLHPAFQTPNSPGSGGFPTGRLA

Legend:
[1] = variants of: B1; test: cAMP reporter score (Enrich2 score, wild type = 0); higher = more signal; HEK293T, FACS bins
[2] = variants of: B1; test: surface expression score (Enrich2 score, wild type = 0); higher = more signal; HEK293T, FACS bins

Work on L274_T275insG yielded a cAMP reporter score ([1]; pH 5.5) of -0.829, a cAMP reporter score ([1]; pH 6.5, modulator: ogerin) of -1.55 and a surface expression score [2] of -3.39.

Work on L274del yielded a cAMP reporter score ([1]; pH 5.5) of -1.24, a cAMP reporter score ([1]; pH 6) of -1.26 and a cAMP reporter score ([1]; pH 6, modulator: ogerin) of -1.04. For the same variant, the cAMP reporter score ([1]; pH 6.5, modulator: ogerin) was -0.491 and the surface expression score [2] was -2.3.

With T275del the cAMP reporter score ([1]; pH 5.5) was -0.791, the cAMP reporter score ([1]; pH 6) was 0.502 and the cAMP reporter score ([1]; pH 6.5, modulator: ogerin) was -0.844. For the same variant, the surface expression score [2] was -2.09.

In the case of MGNITADNSSMSCTIDHTIHQTLAPVVYVTVLVVGFPANCLSLYFGYLQIKARNELGVYLCNLTVADLFYICSLPFWLQYVLQHDNWSHGDLSCQVCGILLYENIYISVGFLCCISVDRYLAVAHPFRFHQFRTLKAAVGVSVVIWAKELLTSIYFLMHEEVIEDENQHRVCFEHYPIQAWQRAINYYRFLVGFLFPICLLLASYQGILRAVRRSHGTQKSRKDQIQRLVLSTVVIFLACFLPYHVLLLVRSVWEASCDFAKGVFNAYHFSLLLTDFNCVADPVLYCFVSETTHRDLARLRGACLAFLTCSRTGRAREAYPLGAPEASGKSGAQGEEPELLTKLHPAFQTPNSPGSGGFPTGRLA [S276D], the cAMP reporter score ([1]; pH 5.5) is reported as -1.3, the cAMP reporter score ([1]; pH 6) is reported as -1.8 and the cAMP reporter score ([1]; pH 6, modulator: ogerin) is reported as -0.623. The cAMP reporter score ([1]; pH 6.5, modulator: ogerin) was -0.724 and the surface expression score [2] was -2.94.

For MGNITADNSSMSCTIDHTIHQTLAPVVYVTVLVVGFPANCLSLYFGYLQIKARNELGVYLCNLTVADLFYICSLPFWLQYVLQHDNWSHGDLSCQVCGILLYENIYISVGFLCCISVDRYLAVAHPFRFHQFRTLKAAVGVSVVIWAKELLTSIYFLMHEEVIEDENQHRVCFEHYPIQAWQRAINYYRFLVGFLFPICLLLASYQGILRAVRRSHGTQKSRKDQIQRLVLSTVVIFLACFLPYHVLLLVRSVWEASCDFAKGVFNAYHFSLLLTAFNCVADPVLYCFVSETTHRDLARLRGACLAFLTCSRTGRAREAYPLGAPEASGKSGAQGEEPELLTKLHPAFQTPNSPGSGGFPTGRLA [S276A], the cAMP reporter score ([1]; pH 5.5) was 0.156, the cAMP reporter score ([1]; pH 6) was -0.753 and the cAMP reporter score ([1]; pH 6, modulator: ogerin) was -0.327. The cAMP reporter score ([1]; pH 6.5, modulator: ogerin) was -0.706 and the surface expression score [2] was -0.291.

Variant MGNITADNSSMSCTIDHTIHQTLAPVVYVTVLVVGFPANCLSLYFGYLQIKARNELGVYLCNLTVADLFYICSLPFWLQYVLQHDNWSHGDLSCQVCGILLYENIYISVGFLCCISVDRYLAVAHPFRFHQFRTLKAAVGVSVVIWAKELLTSIYFLMHEEVIEDENQHRVCFEHYPIQAWQRAINYYRFLVGFLFPICLLLASYQGILRAVRRSHGTQKSRKDQIQRLVLSTVVIFLACFLPYHVLLLVRSVWEASCDFAKGVFNAYHFSLLLTEFNCVADPVLYCFVSETTHRDLARLRGACLAFLTCSRTGRAREAYPLGAPEASGKSGAQGEEPELLTKLHPAFQTPNSPGSGGFPTGRLA [S276E] has a cAMP reporter score ([1]; pH 5.5) of -1.54, a cAMP reporter score ([1]; pH 6) of -0.694 and a cAMP reporter score ([1]; pH 6, modulator: ogerin) of -1.45. It also gave a cAMP reporter score ([1]; pH 6.5, modulator: ogerin) of -1.42 and a surface expression score [2] of -1.68.

MGNITADNSSMSCTIDHTIHQTLAPVVYVTVLVVGFPANCLSLYFGYLQIKARNELGVYLCNLTVADLFYICSLPFWLQYVLQHDNWSHGDLSCQVCGILLYENIYISVGFLCCISVDRYLAVAHPFRFHQFRTLKAAVGVSVVIWAKELLTSIYFLMHEEVIEDENQHRVCFEHYPIQAWQRAINYYRFLVGFLFPICLLLASYQGILRAVRRSHGTQKSRKDQIQRLVLSTVVIFLACFLPYHVLLLVRSVWEASCDFAKGVFNAYHFSLLLTCFNCVADPVLYCFVSETTHRDLARLRGACLAFLTCSRTGRAREAYPLGAPEASGKSGAQGEEPELLTKLHPAFQTPNSPGSGGFPTGRLA [S276C] showed a cAMP reporter score ([1]; pH 5.5) of 0.596, a cAMP reporter score ([1]; pH 6, modulator: ogerin) of 1.3 and a cAMP reporter score ([1]; pH 6.5, modulator: ogerin) of 1.54.

Variant T275_S276insGSG has a cAMP reporter score ([1]; pH 5.5) of -1.23, a cAMP reporter score ([1]; pH 6) of -0.221 and a cAMP reporter score ([1]; pH 6, modulator: ogerin) of -1.18. For the same variant, the cAMP reporter score ([1]; pH 6.5, modulator: ogerin) was -0.814 and the surface expression score [2] was -2.16.

Scores with a large standard error are left out. Two further conditions of the source, in which the scores hardly spread, are not listed. In variant names, del marks residues removed and ins residues inserted between the two positions. For some assays here: The data file names ogerin without a concentration.
